Measured values as given in PubChem BioAssay AID1508623 (National Center for Advancing Translational Sciences (NCATS), 2021).
Out of some 48,000 compounds screened, about 450 (0.94%) were called active. Another 19% or so got no clear call; they are omitted. Calls follow the shape of the dose curve; as a rule, active = well fitted inhibition curve with a large enough effect; inconclusive = small, poorly fitted or top-dose-only effect; inactive = no such curve, though single readings can be large or run the other way. The list shows a part of the results.

Assay: Primary qHTS for Identification of Small Molecule Inhibitors of Huntingtin Promoter Activity; also: nearly all actives have a fitted effect of over 50% in size
Conditions: HEK293 HTT promoter firefly luciferase reporter (activity 0% = vehicle and -100% = no light), 24 h; series mostly up to 57.5 µM; activity change, negative = inhibition: at the top concentration
Outline: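 Firefly luciferase signal from promoter-reporter HEK293 cells was scaled between vehicle (0%) and zero RLU (-100%). Compounds were tested at final concentrations of up to 57.5 uM over 24 h at 37 degrees C. PTC124 at 50 uM final served as control inhibitor.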

Activity change, negative = inhibition, inactive:
COc1ccc(S(=O)(=O)n2nc(C)c(S(=O)(=O)N3CCCCC3)c2C)cc1 -12.9%, COc1ccccc1N1CCN(C(=O)c2cc3c(=O)n(C)c4ccccc4c3s2)CC1 -5.54%, COc1ccc(CNC(=O)Cn2nc(C)n3cccc3c2=O)cc1 11%, COc1ccc(-c2nc(SCC(=O)NC3CCCC3)c(-c3ccc(OC)cc3)[nH]2)cc1 -31.5%, CCc1cccc2c(CCO)c[nH]c12 9.02%, COc1ccccc1-c1noc(-c2ccc(N3CCOCC3)c([N+](=O)[O-])c2)n1 37.5%, CC(C)Cn1c(=O)c2ccccc2n2c(CCC(=O)N3CCN(c4cccc(Cl)c4)CC3)nnc12 4.37%, CC(=O)c1ccc(N2CCN(c3ncnc4c3c(-c3ccccc3)cn4-c3ccc(C)c(Cl)c3)CC2)cc1 -19.1%, COCCCN(Cc1ccco1)C(=O)c1cc2c(s1)-c1ccccc1OC2 -15.6%, CCOC(=O)C1CCN(c2nc3c(S(=O)(=O)c4ccc(Br)cc4)nnn3c3ccsc23)CC1 -0.883%, FC(F)(F)c1cccc(-n2cc(-c3ccccc3)c3c(N4CCCCC4)ncnc32)c1 -9.44%, COc1ccc(CCNC(=O)Cn2cc(C(=O)c3ccc(Cl)cc3)c(=O)c3ccc(C)nc32)cc1OC 7.48%, COc1ccccc1CNC(=O)CN1C(=O)CCc2cc(S(=O)(=O)N3CCCCC3)ccc21 5.04%, CCCN(CCC)CCNC(=O)Cn1cnc2sc(C)c(S(=O)(=O)N3CCC(C)CC3)c2c1=O -16.4%, COCCN1C(=O)c2oc3cc(C)cc(C)c3c(=O)c2C1c1cccc(O)c1 (configuration not stated) -21.3%, COc1ccc(S(=O)(=O)N(CCc2ccccc2)CC(=O)NCc2ccccc2)cc1 -32.6%, CCOC(=O)c1cccc(NC(=O)Cn2nc3c(cc2=O)CCCC3)c1 -4.99%, Cc1ccc(N2CC(C(=O)NCCS(=O)(=O)N3CCN(c4ccccc4)CC3)CC2=O)cc1 (configuration not stated) -12.6%, Cc1ccc(-c2c(CN3CCN(c4cc(C)ccc4C)CC3)csc2C)cc1 -5.53%, Cc1c(C(=O)NC(C)c2ccccc2)sc2ncnc(N(C)C3CCCCC3)c12 (configuration not stated) -22.4%, CCCn1cc(S(=O)(=O)c2cccc(Cl)c2)c(=O)c2cc(F)c(N3CCOCC3)cc21 -20.4%, CCN(CC)C(=O)CSc1nnc2ccc3ccccc3n12 15.9%, CCc1ccccc1NC(=O)CN1C(=O)CCn2nc(-c3cccn3C)cc21 7.83%, COc1ccc(-c2cn3c(n2)sc2cc(C(=O)Nc4ccc(C)c(Cl)c4)ccc23)cc1 20.4%, COC(=O)c1ccc(NC(=O)n2ncc3c(C)cccc32)cc1 9.48%, CCOC(=O)c1[nH]c2c(c1Cc1ccccc1C)C(=O)CC(c1ccccc1)C2 (configuration not stated) 2.56%, Cc1c(C(=O)N2CCCCCC2)c(S(=O)(=O)Nc2cccc(C#N)c2)c(C)n1C 4.38%, CC1(C)N=C(SCc2ccc(Cl)cc2)c2ccccc2N1 3.05%, O=C(NCCc1ccccc1)C(=O)NCC(c1cccs1)S(=O)(=O)c1cccs1 (configuration not stated) -31.9%, Cc1cc(=O)[nH]c2nnc(SCc3ccccc3F)n12 -26.9%, Cn1c(=O)cc(SCC(=O)NCc2ccc(F)cc2)c2cc(Cl)ccc21 -10.7%, Cc1ccc(S(=O)(=O)N2CCN(Cc3cc(=O)n4nc(-c5ccccc5Cl)sc4n3)CC2)cc1 -6.19%, CCOC(=O)c1c(C)[nH]c(C)c1S(=O)(=O)N1CCC(C(=O)Nc2ccccc2CC)CC1 -20.1%, Cn1c(=O)c(=O)n(C)c2cc(NS(=O)(=O)c3ccc(Br)cc3)c(Cl)cc21 -15.7%, CCc1ccc(-n2nc(CO)c(C(=O)NCc3ccccc3Cl)n2)cc1 0.139%, COc1ccc(NC(=O)N2CCCn3nc(C)cc32)cc1OC -1.33%, CCCCNC(=O)CSc1nc2cc3c(cc2c(=O)n1Cc1ccc(C(=O)NCCc2ccc(OC)c(OC)c2)cc1)OCO3 -10.8%, O=C(CCC(=O)N1Cc2ccccc2Oc2ncccc21)NCc1cccc(Cl)c1 -4.54%, COc1ccc(Cc2nc3ccccc3n2Cc2ccccc2C)cc1 -15.2%, O=C(NCc1cccc(Cl)c1)c1ccc(NC(=O)N2CCSc3ccccc32)cc1 -14%, Cc1ccc(Cc2c(C)nc3nc(SCC(=O)NCCC(C)C)nn3c2C)cc1 -6.65%, CNC(=O)Nc1ccc(-c2nc(N3CC4CCC(C3)O4)c3cnn(C4CCC5(CC4)OCCO5)c3n2)cc1 -34.4%, O=C(CN1C(=O)CCn2nc(-c3ccccc3)cc21)NCc1ccccc1 -8.36%, COc1cccc(C2C(C(=O)Nc3ccccc3OC)=C(C)Nc3nc(-c4ccco4)nn32)c1 (configuration not stated) -18.8%, COc1ccc(-n2nc(C(=O)NCCc3ccc(OC)c(OC)c3)c3c4ccccc4n(C)c3c2=O)cc1 -7.46%, CCC(Sc1nnc2c3ccccc3n(CC)c2n1)C(=O)Nc1ccc(NC(C)=O)cc1 (configuration not stated) -8.77%, Cc1ccccc1-c1nc(CS(=O)(=O)CC(=O)NCCCc2ccccc2)c(C)o1 -28.8%, CCCOc1cccc(C2c3c(oc4ccc(F)cc4c3=O)C(=O)N2CCc2ccc(OC)cc2)c1 (configuration not stated) 2.83%, COc1ccc(C(=O)NCC(c2ccc(Cl)cc2)N2CCCCC2)cc1 (configuration not stated) -14.8%, CCC(C(=O)Nc1cc(C(F)(F)F)ccc1Cl)n1nc(C)c2sc3ccccc3c2c1=O (configuration not stated) -9.42%, COc1ccccc1CNC(=O)Cn1nc(C)n2cccc2c1=O -3.84%, COc1ccccc1CNC(=O)CCn1c(=O)c2ccccc2n(CC(=O)Nc2cc(Cl)ccc2C)c1=O -10.7%, CCc1cccc(NC(=O)CSc2ncc3c(n2)-c2cc(Cl)ccc2N(C)S3(=O)=O)c1 -14.2%, Cc1ccc(C2NC(=O)c3n[nH]c(-c4cccs4)c32)cc1 (configuration not stated) -15.5%, Cc1ccc(Cl)cc1N1CCN(C(=O)Cn2nc(C)c3sc4ccccc4c3c2=O)CC1 -12.9%, CCC(C)NC(=O)CCSc1nc(-c2ccc3c(c2)OCO3)cc(C(F)(F)F)n1 (configuration not stated) -34.7%, C[C@]12C=CC(=O)C=C1[C@@H](F)C[C@@H]1[C@@H]2[C@@H](O)C[C@@]2(C)[C@H]1CC[C@]2(O)C(=O)CO 3.31%, COc1ccc(C2CC(=O)c3cc(-c4nc(-c5cccc([N+](=O)[O-])c5)cs4)c(=O)n(-c4cccc(C)c4)c3C2)cc1 (configuration not stated) -5.03%, Cc1ccc(NC(=O)CSc2nc3ccc(NC(=O)c4ccco4)cc3s2)cc1 -22.9%, Cc1ccc(NC(=O)CSc2nc(=O)n(Cc3ccccn3)c3c2CCC3)cc1F -6.19%, COC(=O)c1c(NC(=O)Cc2coc3cc(C)cc(C)c23)sc2c1CCC2 -16.9%, COCCNC(=O)c1c(NC(=O)c2cc(=O)c3cc(C)cc(C)c3o2)sc2c1CCCC2 -9.61%, COc1cccc(Cn2c(C)c(CNCc3cccc(C)c3)c(C(=O)O)c2C)c1 3.61%, O=C(CSc1nc2ccccc2nc1Cc1ccccc1)N1CCc2ccccc21 0.468%, Cc1cccc(-c2nc3c4ccccc4nc(N4CCN(c5cccc(Cl)c5)CC4)n3n2)c1 4.98%, COc1ccc(-c2c3c(nc4sc(C(=O)Nc5cccc(OC)c5)c(N)c24)CC(C)(C)CC3=O)cc1 -4.53%, CCc1ccccc1NC(=O)Cn1c(=O)n(CCc2ccccc2)c(=O)c2sc3ccccc3c21 -3.25%, NC(=O)NC(=O)Cc1ccccc1 7.33%, COc1ccc(CCNC(=O)c2ccc(Cn3c(=O)c4cccn4c4cccnc43)cc2)cc1OC -7.6%, Cc1cc(C)n2nc(CNS(=O)(=O)c3cccc(Cl)c3)nc2n1 0.652%, CCC(C)NC(=O)c1ccc(CNS(=O)(=O)c2ccc3c(c2)C(C)(C)C(=O)N3C)cc1 (configuration not stated) 0.483%, Cc1cc(C)c2oc(-c3cccc(NC(=O)c4cccc(F)c4)c3C)nc2c1 1.37%, Cc1ccc(Cl)cc1NC(=O)CN1C=NS(=O)(=O)c2ccccc21 -10.1%, Cc1cccc(Cn2c(=O)n(-c3cc(C)cc(C)c3)c(=O)c3oc4ccccc4c32)c1 -11.3%, CCc1nn(CCCC(=O)NCc2ccccc2OC)c(=O)c2cc3occc3n12 -15.7%, Cc1cc(C)c2c(n1)nn1c(C)c(CCC(=O)Nc3cccc(C)c3C)c(C)nc21 12.9%, Cc1ccc(Cl)cc1N1CCN(C(=O)C2CCN(S(=O)(=O)c3cn(C)cn3)CC2)CC1 -19.1%, Cc1cccc(N2CCN(CCCNC(=O)Cn3ncc4c([nH]c5ccccc54)c3=O)CC2C)c1 (configuration not stated) -0.161%, COc1ccc(N(C)C(=O)Cn2cnc3sc(C)c(S(=O)(=O)N4CCN(c5ncccn5)CC4)c3c2=O)cc1 -12.7%, Cc1ccc(-c2nc3cccc(C)n3c2Nc2ccc3c(c2)OCCO3)cc1 39%, CCOCCCn1c(=N)c(C(=O)NC2CCCCC2)cc2c(=O)n3ccccc3nc21 15.4%, CCc1nn(CC(=O)NCc2ccccc2)c(=O)c2cccn12 -4.84%, COc1cccc(-c2cn3c(n2)sc2cc(C(=O)NC4CCCCC4)ccc23)c1 -28.6%, CCc1ccccc1Nc1nn2c(=O)c3ccc(C(=O)NC(C)C)cc3nc2s1 -3.42%, COc1cc(NC(=O)C2CCN(c3cnccn3)CC2)cc(OC)c1 -11.7%, O=C(Cn1c(=O)n(Cc2ccco2)c(=O)c2oc3ccccc3c21)Nc1ccccc1 -6.61%, COc1ccccc1N1CCN(C(=O)C2CCN(S(=O)(=O)c3cn(C)cn3)CC2)CC1 -10.4%, COc1ccc(-c2cc(=O)c3c(O)cc(O[C@@H]4O[C@H](CO[C@@H]5O[C@@H](C)[C@H](O)[C@@H](O)[C@H]5O)[C@@H](O)[C@H](O)[C@H]4O)cc3o2)cc1O 3.77%, CCOCCCNC(=O)c1ccc2c(=O)n(CCc3ccccc3)c(=O)[nH]c2c1 9.19%, CCc1ccc2oc(-c3cc(NC(=O)c4cc(OC)c(OC)c(OC)c4)ccc3O)nc2c1 9.56%, COc1cc(Nc2ncc(F)c(Nc3ccc4c(n3)N(COP(=O)(O)O)C(=O)C(C)(C)O4)n2)cc(OC)c1OC -2.75%, COc1cccc(NC(=O)C2CCC(CNS(=O)(=O)c3csc(C(N)=O)c3)CC2)c1 (configuration not stated) -7.29%
